Data taken from the supplement of paper PMC4967469.
The IC50 comes from the fitted curve, where viability falls to half of the control; where the fit passes the top or lowest dose, that dose stands as a limit. AUC sums up the same curve from the lowest dose to the 256-fold higher top dose; values near 1 show little effect. The top dose, if marked as inferred, comes from the curve model; the source does not state it.

Legend:
Assay in all cases: Viability of human cancer cell lines after 72 h of drug (GDSC screen)
QL-XI-92 = compound: C=CC(=O)Nc1cc(NC(=O)c2ccc(C)c(NC(=O)c3ccno3)c2)cc(C(F)(F)F)c1 [QL-XI-92]; details: top dose 10.24 µM; top dose inferred
Description: (§1)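 Human cancer cell lines in 384-well plates, medium with 10% serum, drug for 72 h over a 256-fold dose range (nine 2-fold or five 4-fold steps up to the top dose). Adherent lines were fixed and stained with the nucleic acid dye Syto60, suspension lines read with resazurin; signal relative to control wells, capped at 0 and 100%. One two-parameter sigmoid per drug and line, fitted in a mixed model over all curves with the slope shared within a line.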

XL-184 = compound: COc1cc2nccc(Oc3ccc(NC(=O)C4(C(=O)Nc5ccc(F)cc5)CC4)cc3)c2cc1OC [XL-184]; details: top dose 5.12 µM; top dose inferred
Description: as §1

EHT 1864 = compound: O=c1cc(CN2CCOCC2)occ1OCCCCCSc1ccnc2cc(C(F)(F)F)ccc12 [EHT 1864]; details: top dose 10 µM; top dose inferred
Description: as §1

WHI-P97 = compound: COc1cc2ncnc(Nc3cc(Br)c(O)c(Br)c3)c2cc1OC [WHI-P97]; details: top dose 10.24 µM; top dose inferred
Description: as §1

Vinorelbine = compound: CCC1=C[C@@H]2CN(C1)Cc1c([nH]c3ccccc13)[C@@](C(=O)OC)(c1cc3c(cc1OC)N(C)[C@H]1[C@@](O)(C(=O)OC)[C@H](OC(C)=O)[C@]4(CC)C=CCN5CC[C@]31[C@@H]54)C2 [Vinorelbine]; details: top dose 0.064 µM; top dose inferred
Description: as §1

Phenformin = compound: N=C(N)NC(=N)NCCc1ccccc1 [Phenformin]; details: top dose 4000 µM; top dose inferred
Description: as §1

AG-014699 = compound: CNCc1ccc(-c2[nH]c3cc(F)cc4c3c2CCNC4=O)cc1 [AG-014699]; details: top dose 5 µM; top dose inferred
Description: as §1

Cell Line	AUC (QL-XI-92)	IC50 (QL-XI-92) [µM]	AUC (XL-184)	IC50 (XL-184) [µM]	AUC (EHT 1864)	IC50 (EHT 1864) [µM]	AUC (WHI-P97)	IC50 (WHI-P97) [µM]	AUC (Vinorelbine)	IC50 (Vinorelbine) [µM]	AUC (Phenformin)	IC50 (Phenformin) [µM]	AUC (AG-014699)	IC50 (AG-014699) [µM]
769-P (kidney, adherent)	0.9	> 10.2	0.964	> 5.12	0.904	> 10	0.787	4.88	0.724	0.0185	0.741	1320	–	–
A204 (rhabdomyosarcoma, adherent)	0.888	> 10.2	0.505	0.331	0.945	> 10	0.958	> 10.2	0.507	0.00421	0.937	> 4000	0.887	> 5
BEN (non-small cell lung carcinoma, adherent)	0.979	> 10.2	0.966	> 5.12	0.868	> 10	0.986	> 10.2	0.765	0.0267	0.742	1390	0.931	> 5
BFTC-909 (kidney, adherent)	0.987	> 10.2	0.975	> 5.12	0.926	> 10	0.975	> 10.2	0.695	0.0139	0.881	> 4000	0.959	> 5
BICR31 (head and neck, adherent)	0.988	> 10.2	0.927	> 5.12	–	–	0.916	> 10.2	0.554	0.00563	0.94	> 4000	–	–
CAKI-1 (kidney, adherent)	0.941	> 10.2	–	–	0.963	> 10	0.914	> 10.2	0.953	> 0.064	0.788	2820	0.905	> 5
CAMA-1 (breast, adherent)	0.955	> 10.2	0.951	> 5.12	0.92	> 10	0.979	> 10.2	0.655	0.012	0.61	544	0.977	> 5
COLO-792 (melanoma, adherent)	0.917	> 10.2	0.979	> 5.12	–	–	0.981	> 10.2	0.919	> 0.064	–	–	0.988	> 5
COR-L105 (lung adenocarcinoma, adherent)	0.876	> 10.2	0.874	> 5.12	0.908	> 10	0.664	2.04	0.744	0.0238	0.59	467	0.923	> 5
COR-L303 (small cell lung carcinoma, suspension)	0.902	> 10.2	0.985	> 5.12	–	–	0.971	> 10.2	–	–	0.954	> 4000	–	–
COR-L311 (small cell lung carcinoma, suspension)	0.799	5.31	0.937	> 5.12	–	–	0.946	> 10.2	–	–	–	–	–	–
Caov-3 (ovary, adherent)	0.989	> 10.2	0.924	> 5.12	–	–	0.946	> 10.2	0.902	> 0.064	0.622	518	–	–
GCT (soft tissue, adherent)	0.989	> 10.2	0.988	> 5.12	0.944	> 10	0.989	> 10.2	0.873	0.0544	0.968	> 4000	0.894	> 5
GP5d (large intestine, adherent)	0.991	> 10.2	0.933	> 5.12	0.968	> 10	0.917	> 10.2	0.619	0.0082	0.709	901	0.988	> 5
H2803 (mesothelioma, adherent)	0.985	> 10.2	0.863	> 5.12	0.963	> 10	0.983	> 10.2	0.941	> 0.064	0.985	> 4000	0.97	> 5
H2804 (mesothelioma, adherent)	0.938	> 10.2	0.934	> 5.12	0.973	> 10	0.976	> 10.2	0.63	0.00948	0.976	> 4000	0.917	> 5
H2810 (mesothelioma, adherent)	–	–	–	–	0.972	> 10	–	–	–	–	–	–	0.922	> 5
H2818 (mesothelioma, adherent)	0.982	> 10.2	0.989	> 5.12	0.97	> 10	0.989	> 10.2	0.958	> 0.064	0.932	> 4000	0.971	> 5
HO-1-N-1 (head and neck, adherent)	0.984	> 10.2	0.98	> 5.12	0.972	> 10	0.977	> 10.2	0.553	0.0055	0.85	2660	0.958	> 5
HPAC (pancreas, adherent)	0.848	> 10.2	0.698	1.46	0.903	> 10	0.971	> 10.2	0.69	0.0171	0.839	> 4000	0.927	> 5
